According to article PMC5173324:
Like-named read-outs stand apart in the source and are kept apart here. No constants are given. Whether binding was seen depends on the method and setting. For part of these data: Binding seen in cells or lysates may run through a third protein. Some entries that bind do so weakly or less than the wild type. For part of these data: Sequences can lack the tags named with a protein. One block for each molecule: values may come before it.

Amino acid sequences for entries named in this document (tags omitted). A change or cut given only in a name is not applied to a line headed by its entry. Residues count along the entry.
UniProt P11881, residues 224-604: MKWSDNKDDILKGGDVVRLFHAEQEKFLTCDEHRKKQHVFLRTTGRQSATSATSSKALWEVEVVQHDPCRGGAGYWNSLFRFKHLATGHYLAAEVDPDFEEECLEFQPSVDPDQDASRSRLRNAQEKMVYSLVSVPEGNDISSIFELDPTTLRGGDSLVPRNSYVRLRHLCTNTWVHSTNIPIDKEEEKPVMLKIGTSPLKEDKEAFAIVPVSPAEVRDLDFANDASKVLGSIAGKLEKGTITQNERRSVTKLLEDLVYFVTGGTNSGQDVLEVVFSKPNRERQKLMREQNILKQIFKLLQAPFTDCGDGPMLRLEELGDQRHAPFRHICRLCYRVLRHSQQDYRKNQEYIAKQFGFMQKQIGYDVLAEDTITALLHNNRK
UniProt Q14643: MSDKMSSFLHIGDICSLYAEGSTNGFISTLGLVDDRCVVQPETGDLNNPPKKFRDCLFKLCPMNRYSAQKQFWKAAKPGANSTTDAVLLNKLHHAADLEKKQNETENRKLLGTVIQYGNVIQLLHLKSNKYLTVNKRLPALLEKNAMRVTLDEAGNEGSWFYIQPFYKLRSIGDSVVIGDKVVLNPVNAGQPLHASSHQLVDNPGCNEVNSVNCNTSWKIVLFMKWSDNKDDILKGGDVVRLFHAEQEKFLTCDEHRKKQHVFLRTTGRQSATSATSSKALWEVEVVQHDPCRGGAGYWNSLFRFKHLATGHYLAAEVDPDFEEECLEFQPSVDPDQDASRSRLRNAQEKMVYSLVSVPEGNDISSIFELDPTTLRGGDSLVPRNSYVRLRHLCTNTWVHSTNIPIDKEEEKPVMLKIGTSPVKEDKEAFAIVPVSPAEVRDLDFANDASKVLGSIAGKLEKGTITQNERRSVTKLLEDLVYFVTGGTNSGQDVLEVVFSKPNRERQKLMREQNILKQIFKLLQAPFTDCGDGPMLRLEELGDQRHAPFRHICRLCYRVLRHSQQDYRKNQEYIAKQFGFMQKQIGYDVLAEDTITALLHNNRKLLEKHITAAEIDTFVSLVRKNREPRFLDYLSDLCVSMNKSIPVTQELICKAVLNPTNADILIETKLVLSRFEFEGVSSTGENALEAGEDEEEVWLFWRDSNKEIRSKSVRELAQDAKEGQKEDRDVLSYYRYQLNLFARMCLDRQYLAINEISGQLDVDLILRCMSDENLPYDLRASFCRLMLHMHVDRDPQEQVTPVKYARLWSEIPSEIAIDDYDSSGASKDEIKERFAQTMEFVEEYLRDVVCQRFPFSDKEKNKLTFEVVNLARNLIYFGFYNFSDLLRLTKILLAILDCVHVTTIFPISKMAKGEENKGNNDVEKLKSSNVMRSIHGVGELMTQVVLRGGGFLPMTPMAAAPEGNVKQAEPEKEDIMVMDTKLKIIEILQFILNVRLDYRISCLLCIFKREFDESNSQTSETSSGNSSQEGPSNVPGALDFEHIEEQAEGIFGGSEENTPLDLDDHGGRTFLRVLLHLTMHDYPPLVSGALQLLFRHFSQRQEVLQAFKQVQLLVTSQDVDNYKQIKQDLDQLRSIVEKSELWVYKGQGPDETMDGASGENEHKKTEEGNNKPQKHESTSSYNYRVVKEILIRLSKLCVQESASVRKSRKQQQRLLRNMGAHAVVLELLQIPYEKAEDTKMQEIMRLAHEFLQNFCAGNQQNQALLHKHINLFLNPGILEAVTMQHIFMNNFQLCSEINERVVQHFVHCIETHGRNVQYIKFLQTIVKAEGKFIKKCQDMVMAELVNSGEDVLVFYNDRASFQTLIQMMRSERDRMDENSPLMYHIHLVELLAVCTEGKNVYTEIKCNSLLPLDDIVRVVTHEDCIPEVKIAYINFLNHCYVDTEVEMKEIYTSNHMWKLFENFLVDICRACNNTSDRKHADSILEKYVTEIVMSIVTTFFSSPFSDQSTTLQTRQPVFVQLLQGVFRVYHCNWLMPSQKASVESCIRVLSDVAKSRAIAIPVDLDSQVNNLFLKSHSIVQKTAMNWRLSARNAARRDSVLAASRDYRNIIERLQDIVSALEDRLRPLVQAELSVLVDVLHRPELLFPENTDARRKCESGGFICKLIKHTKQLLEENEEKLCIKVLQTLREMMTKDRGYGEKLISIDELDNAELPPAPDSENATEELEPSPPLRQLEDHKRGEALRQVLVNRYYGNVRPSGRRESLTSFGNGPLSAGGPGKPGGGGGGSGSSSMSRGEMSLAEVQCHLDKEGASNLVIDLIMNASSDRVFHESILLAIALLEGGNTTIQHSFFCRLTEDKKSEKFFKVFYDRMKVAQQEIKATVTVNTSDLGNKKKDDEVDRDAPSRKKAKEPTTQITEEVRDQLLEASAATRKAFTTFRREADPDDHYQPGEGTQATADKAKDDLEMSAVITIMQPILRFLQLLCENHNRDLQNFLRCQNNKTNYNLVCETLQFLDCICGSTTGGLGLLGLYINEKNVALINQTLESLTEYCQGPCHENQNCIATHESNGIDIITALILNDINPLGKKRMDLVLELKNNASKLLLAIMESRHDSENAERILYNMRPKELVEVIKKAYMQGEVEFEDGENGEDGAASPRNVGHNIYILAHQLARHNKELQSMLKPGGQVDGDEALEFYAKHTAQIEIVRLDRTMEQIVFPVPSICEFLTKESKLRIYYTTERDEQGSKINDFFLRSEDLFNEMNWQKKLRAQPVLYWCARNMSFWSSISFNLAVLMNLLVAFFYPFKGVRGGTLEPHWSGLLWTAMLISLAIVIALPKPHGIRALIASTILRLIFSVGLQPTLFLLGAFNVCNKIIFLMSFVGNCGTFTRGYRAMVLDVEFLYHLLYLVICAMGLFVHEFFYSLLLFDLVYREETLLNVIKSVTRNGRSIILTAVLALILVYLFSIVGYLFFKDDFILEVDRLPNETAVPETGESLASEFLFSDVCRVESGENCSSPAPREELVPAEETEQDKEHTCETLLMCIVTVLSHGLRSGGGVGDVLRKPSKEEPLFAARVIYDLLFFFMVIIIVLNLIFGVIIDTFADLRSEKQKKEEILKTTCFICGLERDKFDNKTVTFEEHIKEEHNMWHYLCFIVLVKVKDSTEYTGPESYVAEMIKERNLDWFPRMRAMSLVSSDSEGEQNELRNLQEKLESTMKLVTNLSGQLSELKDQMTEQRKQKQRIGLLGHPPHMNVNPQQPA
UniProt Q14571: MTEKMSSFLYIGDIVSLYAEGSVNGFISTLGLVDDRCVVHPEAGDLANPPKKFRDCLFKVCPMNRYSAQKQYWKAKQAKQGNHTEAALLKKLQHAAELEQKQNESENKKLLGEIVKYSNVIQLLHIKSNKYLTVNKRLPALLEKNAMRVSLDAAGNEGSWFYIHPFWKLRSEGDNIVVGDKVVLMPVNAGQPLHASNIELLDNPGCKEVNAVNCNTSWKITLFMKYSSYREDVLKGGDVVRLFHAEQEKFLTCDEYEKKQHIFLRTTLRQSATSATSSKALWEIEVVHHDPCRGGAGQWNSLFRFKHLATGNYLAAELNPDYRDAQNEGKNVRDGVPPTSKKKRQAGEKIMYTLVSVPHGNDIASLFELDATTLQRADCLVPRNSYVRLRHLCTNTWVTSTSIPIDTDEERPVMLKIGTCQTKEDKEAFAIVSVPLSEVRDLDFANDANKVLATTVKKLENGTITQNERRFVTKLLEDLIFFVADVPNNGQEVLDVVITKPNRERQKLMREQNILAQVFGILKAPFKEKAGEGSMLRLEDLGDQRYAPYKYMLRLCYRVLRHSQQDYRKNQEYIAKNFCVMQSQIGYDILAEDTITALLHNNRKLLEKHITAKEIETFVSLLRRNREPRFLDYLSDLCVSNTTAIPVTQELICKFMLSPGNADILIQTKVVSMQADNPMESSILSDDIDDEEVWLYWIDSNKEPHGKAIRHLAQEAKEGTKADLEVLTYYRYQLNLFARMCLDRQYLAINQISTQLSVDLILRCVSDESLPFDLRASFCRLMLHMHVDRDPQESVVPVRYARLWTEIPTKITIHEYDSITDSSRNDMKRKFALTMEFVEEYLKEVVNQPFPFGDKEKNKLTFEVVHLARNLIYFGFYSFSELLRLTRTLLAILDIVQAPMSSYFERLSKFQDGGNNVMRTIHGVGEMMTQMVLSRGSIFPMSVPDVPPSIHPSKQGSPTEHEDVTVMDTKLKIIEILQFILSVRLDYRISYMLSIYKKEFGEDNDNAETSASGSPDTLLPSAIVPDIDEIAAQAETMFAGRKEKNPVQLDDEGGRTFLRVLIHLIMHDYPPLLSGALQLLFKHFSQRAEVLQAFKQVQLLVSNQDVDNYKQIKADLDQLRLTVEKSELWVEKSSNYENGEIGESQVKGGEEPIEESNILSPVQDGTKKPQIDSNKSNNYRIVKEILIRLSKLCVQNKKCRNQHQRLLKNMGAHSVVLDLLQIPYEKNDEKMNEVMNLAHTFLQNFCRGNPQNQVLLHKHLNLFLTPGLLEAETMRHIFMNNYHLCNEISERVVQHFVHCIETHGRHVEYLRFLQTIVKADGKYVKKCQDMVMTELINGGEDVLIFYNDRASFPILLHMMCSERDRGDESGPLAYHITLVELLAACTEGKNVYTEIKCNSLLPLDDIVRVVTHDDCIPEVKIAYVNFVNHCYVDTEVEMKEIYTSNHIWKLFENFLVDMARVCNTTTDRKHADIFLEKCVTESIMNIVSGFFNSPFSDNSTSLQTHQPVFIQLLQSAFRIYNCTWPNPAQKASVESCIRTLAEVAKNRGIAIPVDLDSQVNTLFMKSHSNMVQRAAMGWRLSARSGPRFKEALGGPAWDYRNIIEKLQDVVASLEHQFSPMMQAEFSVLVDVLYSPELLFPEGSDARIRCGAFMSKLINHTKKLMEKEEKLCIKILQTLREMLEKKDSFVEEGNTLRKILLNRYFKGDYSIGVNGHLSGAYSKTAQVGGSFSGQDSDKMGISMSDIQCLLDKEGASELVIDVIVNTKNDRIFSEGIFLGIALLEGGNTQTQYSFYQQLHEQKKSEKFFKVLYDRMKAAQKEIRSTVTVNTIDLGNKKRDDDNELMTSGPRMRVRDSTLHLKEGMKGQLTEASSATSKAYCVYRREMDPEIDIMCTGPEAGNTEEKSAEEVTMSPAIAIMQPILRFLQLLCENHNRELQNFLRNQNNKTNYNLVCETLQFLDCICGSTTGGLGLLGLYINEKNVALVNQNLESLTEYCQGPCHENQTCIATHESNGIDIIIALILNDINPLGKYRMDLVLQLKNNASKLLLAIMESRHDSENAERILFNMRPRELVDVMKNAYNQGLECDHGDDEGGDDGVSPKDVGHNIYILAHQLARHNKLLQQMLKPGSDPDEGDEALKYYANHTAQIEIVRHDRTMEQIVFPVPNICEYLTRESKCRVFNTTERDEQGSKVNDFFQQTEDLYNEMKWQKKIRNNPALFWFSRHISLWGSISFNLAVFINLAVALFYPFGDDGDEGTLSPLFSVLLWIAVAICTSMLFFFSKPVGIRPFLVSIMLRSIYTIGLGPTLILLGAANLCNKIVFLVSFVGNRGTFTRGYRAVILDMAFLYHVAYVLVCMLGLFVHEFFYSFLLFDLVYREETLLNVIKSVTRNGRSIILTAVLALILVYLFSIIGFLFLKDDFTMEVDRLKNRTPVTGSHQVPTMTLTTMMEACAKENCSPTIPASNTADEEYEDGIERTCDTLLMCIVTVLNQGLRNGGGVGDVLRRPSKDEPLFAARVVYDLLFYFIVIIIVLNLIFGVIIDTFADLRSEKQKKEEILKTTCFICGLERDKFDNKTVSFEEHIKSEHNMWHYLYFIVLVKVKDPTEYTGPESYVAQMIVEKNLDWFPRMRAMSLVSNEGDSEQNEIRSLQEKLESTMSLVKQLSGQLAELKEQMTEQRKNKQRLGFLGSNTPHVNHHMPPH
UniProt Q80SW1: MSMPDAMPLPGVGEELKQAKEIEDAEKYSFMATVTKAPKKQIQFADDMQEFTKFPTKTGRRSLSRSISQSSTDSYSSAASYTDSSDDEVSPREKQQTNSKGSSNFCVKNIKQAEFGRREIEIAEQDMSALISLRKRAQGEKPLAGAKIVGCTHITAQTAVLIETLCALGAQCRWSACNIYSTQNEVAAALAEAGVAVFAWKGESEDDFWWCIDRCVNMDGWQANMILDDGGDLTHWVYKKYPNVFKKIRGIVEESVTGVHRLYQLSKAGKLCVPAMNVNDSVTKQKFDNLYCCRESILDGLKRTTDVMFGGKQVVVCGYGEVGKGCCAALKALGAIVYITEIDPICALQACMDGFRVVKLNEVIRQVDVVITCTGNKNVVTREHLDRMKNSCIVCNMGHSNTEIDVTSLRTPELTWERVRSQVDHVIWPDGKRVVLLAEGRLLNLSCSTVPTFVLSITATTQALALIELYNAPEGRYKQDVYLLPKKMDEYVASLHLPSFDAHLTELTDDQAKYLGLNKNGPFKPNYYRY

Legend:
FLAG-Bcl2l10 (human) = biological target: T1, FLAG-Bcl2l10 (human) (UniProt Q9HD36); experiment: co-IP; tagged proteins co-expressed in HeLa cells, lysate in TNE buffer, 4°C, Protein-G sepharose, western blot
T1 sequence: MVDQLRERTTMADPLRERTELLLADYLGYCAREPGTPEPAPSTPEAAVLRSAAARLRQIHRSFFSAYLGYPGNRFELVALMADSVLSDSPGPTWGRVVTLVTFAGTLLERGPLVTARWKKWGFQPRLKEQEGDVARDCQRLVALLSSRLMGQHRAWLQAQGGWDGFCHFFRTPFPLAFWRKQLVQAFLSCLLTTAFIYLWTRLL

GST-IP3BD [1] = biological target: GST-IP3BD (UniProt P11881); experiment: pull-down; 10 μg GST fusion protein incubated with lysates of transfected HeLa cells, TNE buffer, 4°C, glutathione-Sepharose 4B, elution with 20 mM glutathione, western blot; for HA-IRBIT also with co-expressed FLAG-Bcl2l10 and with 0, 1 or 10 µM IP3; only the target purified
[2] = biological target: endogenous IP3R1 (human (endogenous in HeLa)) (UniProt Q14643); experiment: co-IP; endogenous proteins immunoprecipitated from HeLa cell extract in TNE buffer (10 mM Tris-HCl pH 7.4, 200 mM NaCl, 1 mM EDTA, 0.2% NP-40), 4°C, Protein-G sepharose, western blot
[3] = biological target: endogenous IP3R2 (human (endogenous in HeLa)) (UniProt Q14571); experiment: as above
[4] = biological target: endogenous IRBIT (human (endogenous in HeLa)) (UniProt O43865); experiment: as above
[5] = biological target: endogenous IP3R3 (human (endogenous in HeLa)) (UniProt Q14573); experiment: as above
[6] = biological target: endogenous IRBIT (human (endogenous in HeLa)) (UniProt O43865); experiment: native gel or EMSA; 2D blue-native / SDS-PAGE of a digitonin-solubilised crude mitochondria fraction of HeLa cells; second dimension analysed by western blot
GST-IP3BD [7] = biological target: GST-IP3BD (UniProt P11881); experiment: pull-down; 10 μg GST fusion protein incubated with lysates of transfected HeLa cells, TNE buffer, 4°C, glutathione-Sepharose 4B, elution with 20 mM glutathione, western blot; for HA-IRBIT also with co-expressed FLAG-Bcl2l10 and with 0, 1 or 10 µM IP3; only the target purified; remark: listed apart in the source

Molecule: EGFP-IRBIT 1–138 (from UniProt Q80SW1 1-138) (domain or fragment)
binding (FLAG-Bcl2l10 (human)): no binding

Molecule: EGFP-IRBIT 1–201 (from UniProt Q80SW1 1-201) (domain or fragment)
binding (FLAG-Bcl2l10 (human)): binds

Molecule: EGFP-IRBIT 1–231 (from UniProt Q80SW1 1-231) (domain or fragment)
binding (FLAG-Bcl2l10 (human)): binds

Molecule: HA-IRBIT (from UniProt Q80SW1 1-530)
binding (FLAG-Bcl2l10 (human)): binds
binding (GST-IP3BD [1]): binds

B1: endogenous Bcl2l10 (protein, UniProt Q9HD36 1-204)
chain: T1 sequence
binding [2]: binds
binding [3]: binds
binding [4]: binds
binding [5]: binds
binding [6]: binds

B2: FLAG-Bcl2l10 (protein, UniProt Q9HD36 1-204)
chain: T1 sequence
binding (GST-IP3BD [7]): binds

Other lines, results leading:

binding (FLAG-Bcl2l10 (human)): no binding
Molecule: EGFP-IRBIT 1–104 (from UniProt Q80SW1 1-104) (domain or fragment)

binding (FLAG-Bcl2l10 (human)): binds weakly
Molecule: EGFP-IRBIT 1–169 (from UniProt Q80SW1 1-169) (domain or fragment)

binding (FLAG-Bcl2l10 (human)): binds
Molecule: HA-IRBIT S68A (from UniProt Q80SW1 1-530)

binding (FLAG-Bcl2l10 (human)): binds
Molecule: HA-tagged IRBIT with the first 104 amino acids deleted (from UniProt Q80SW1 105-530) (domain or fragment)
